In the supplement of paper PMC12632987:
The full ranking holds about 4,500 sequences; the median of “median log2 fold change of GCK-ALFA target abundance (FLAG IP / Myc IP barcode read proportion)” is about 0.078, and the lowest 2% start at about -0.6. Some of the results follow.

B1: GBRAP_83_6990 (protein)
chain: KEKITVAANGDDIEEAAEIVIDLTKEEGYEVDVEIIATKEDWEKVLEMVERLAEAGIETDITVLAEGITEEEAKEKQKELEEIAKEHGVNINVKVYAIEP
B2: GBRAP_52_6214 (protein)
chain: MEEKIEEAAEKIADALIAGDEEKLVKLVKEAIKEFNLEDLEKIAARMGRILAKRLAGDEERIVALIDKFEEAAKKAGLSEDDALALEGAAEAAAIKELLA
B3: GBRAP_14_3777 (protein)
chain: MEKKKEIIEEHAEEIIELLSELAPEKAEEFRKAVEEVTKETIEEIEKTGDVEKALEEGEERLVERIEEILADEPAEVRARAVAIVRVEMGNALLEIDELE
B4: GBRAP_184_5185 (protein)
chain: MIEEFTIEANNVEELKKKLKEIAEKIKGKKVELYIILKAEKVTVEMAEAAMDELGEIKKAGYATKITVLVEGDVSEEVVDVLVEKGKEAGVNVTIALPEE
B5: GBRAP_95_7056 (protein)
chain: EDGRLAFEDDAEVLDTYVELGDEEAARRAARRAVALFKEIGPVPLPKSISLEAKKLLLEVAAEEADEETQEALLAELLASARTEEEKEALRAHYEALKAA
B6: GBRAP_52_6013 (protein)
chain: MRARLRAFVDEVLALVKAGRLAEAEARLRELVASLDEEELELLIDVIAERAAAAAPEDQEAVWTLAEMLEEQLLAAGVDEALADDLLARVAAALYEAEQR
B7: GBRAP_106_2558 (protein)
chain: SKKETAEKIYKEMLEEAKKEIAEHEAWLAKHRSQLTPEEIRAINQYLRDYLVAKLLRKMIEAGIITKEEAKEILEEVRKRKDLDPLEALEYAGKLVLEKI
B8: GBRAP_26_5438 (protein)
chain: IEEVEREAIERLAEVAAKIGDPEKAAAALAEAITLLHEFVETVEEEDLSEEEMEELAEEKVEELREFLEDLGLSEELREELVETFREALKRIAEELKKER
B9: GBRAP_52_6384 (protein)
chain: AVEEAAELLWRAIELIMEGGPREEVEKLAKELLEFDEETLEEAAELVAERVRGLSPEEAEAALEATFELADILEELGLPEEVASLIEAEIGKAAYEVLQR
B10: GBRAP_128_3408 (protein)
chain: STEETVERARELLEAMLTADEEEQRRLAEELAELLLESDLETVERIVEVILEKLPEFTAEQLEILADVLEARRDEFTPEKQELVSEVIVEALNLAEELEE
B11: GBRAP_166_4899 (protein)
chain: AVEAAIARINALAAETIANIASLSDEELLARFVEMAEIAEEAGPTPELRAATAAAFVAILAAAEAAGRDPDTVASLILAAVGPNEKLLDAVEAAIAAARA
B12: GBRAP_184_5072 (protein)
chain: TVVEETLRVENVEEARAQMDALEERLRDVKGTLVVHLEMERFDRETVEAVVDRLAEMKEAGLVDRVVLGLDADVTEEEVDWAVALADEAGIQLVLALEEE
B13: GBRAP_160_4635 (protein)
chain: MESLEEMKEVVEEYTKIALEYIDEGDLDGALAALRMMVGDLVMLASEDPRFSDEDVDKLAEAGDAAVAEFEANRDASKEELKKLVEEAAKKLKELIEEFY
B14: GBRAP_160_4831 (protein)
chain: SEKLEEFKKFIDEEFEETLEMMKGESTEQRAAIVRVTFGRIIMEGRELGVLTDELEDFIREVEDEVVATILANPDLTDEELEALLNEARDKIIEALEKSS
B15: GBRAP_160_4591 (protein)
chain: MEALERAKEIVEEELEEAEEMIVGETAEQRATIVAGAGGEIIWELDELPEATDELLDRVDAIIDAAVARILANPDLTEEEVRALLREAREAIKRAIEEAF
B16: GBRAP_95_7055 (protein)
chain: DDAELAAQDLAEVVDTLVELGDEDAARRAAERLVALHREEGPLPIPASVSLEARKLILTVAHETASPADLEALLAALLASATTEEDKAALRAHHAALLAA
B17: GBRAP_128_3417 (protein)
chain: ADEEKVAEARALLAEMLTADPATAAALADRLVALIAAADLETAEAIGEVILEELPRFTAEQLDILADAIRAALPAATPEKAEILADVLVAALNEAEEKEE
B18: GBRAP_139_3753 (protein)
chain: MSLEELIAEAVALARAIPEDPEGAIRRIAELLLSVDDEDAERVARAIAEELLGLPFDEFEAISDALIETLLEEFGNEDLADIVEAERNRALAEIAVREEA
B19: GBRAP_160_4010 (protein)
chain: SAEIEALKKEIRELFEELKEDIKGLTPEERLTLARGTIGDIIQLALESPSVSDETEDKIAEIGDEFIARAEANADAPLEVWVALIEEHEKRVFELLDESE

The binders below were run against GABARAP, O95166 (assay: median log2 fold change of GCK-ALFA target abundance (FLAG IP / Myc IP barcode read proportion) (log2 ratio); each designed protein is fused to an ALFA-tag nanobody in HEK293 cells to bring the named protein to FLAG-tagged glucokinase (GCK); Myc marks an untargeted standard; higher = target protein stabilised (more abundant)). Settings: target protein: 3xFLAG-MCP-GCK-ALFA reporter; HEK293 landing pad (RPLP).
Procedure, shortened: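 An ALFA-nanobody-fused binder library was recombined into HEK293 landing-pad cells and induced with 2 μg mL^−1 doxycycline. Cells were transfected with a plasmid expressing a FLAG-tagged target and a Myc-tagged standard. After 48 h, lysates underwent anti-FLAG and anti-Myc immunoprecipitation, and circular RNA barcodes were reverse transcribed, amplified and sequenced. Target abundance is the per-binder median log2 ratio of FLAG to Myc barcode read proportions. Barcodes needed ≥10^−7 proportion in both replicates, binders ≥3 barcodes per replicate, and a 10^−6 pseudocount was added; the two replicates were pooled.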

GABARAP, O95166, sequence (O95166 whole entry, the tested form may be a part): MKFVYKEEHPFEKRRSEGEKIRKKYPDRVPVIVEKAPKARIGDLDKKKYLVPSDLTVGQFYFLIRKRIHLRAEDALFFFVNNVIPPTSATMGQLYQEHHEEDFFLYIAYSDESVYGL

Row | Binder | median log2 fold change
1 | B1 | -0.0785
2 | B2 | 0.00341
3 | B3 | 0.25
4 | B4 | 0.0278
5 | B5 | 0.226
6 | B6 | -0.123
7 | B7 | -0.711
8 | B8 | -0.152
9 | B9 | -0.543
10 | B10 | 0.0331
11 | B11 | 0.125
12 | B12 | 0.0731
13 | B13 | -0.119
14 | B14 | 0.188
15 | B15 | -0.395
16 | B16 | 0.283
17 | B17 | 0.182
18 | B18 | -0.139
19 | B19 | 0.158
